Where two headings read alike, the source gives them in different places.
Tests used:
[1] = tested on: rice blast fungi (Magnaporthe grisea); format: in vivo; conditions: for Test A control value: rice blast; for Test A control value class (rice blast): control value=100{1-(n/3)}
[2] = tested on: tomato late blight fungi (Phytophthora infestans); format: in vivo; conditions: for Test F control value: tomato late blight; for Test F control value class (tomato late blight): control value=100{1-(n/3)}
[3] = tested on: cucumber anthracnose fungi (Colletotrichum orbiculare); test: Test Example H: cucumber anthracnose, spray treatment of cucumber plants; conditions: for Test H control value: cucumber anthracnose, 6 to 10 days after inoculation; for Test H control value class (cucumber anthracnose): 2.5 ml/pot, cucumber Sagami Hanjiro, 6 to 10 days from inoculation
[4] = spray treatment of tomato plants

Compound | Test A control value class (rice blast) ([1]; spray treatment of rice plants) | Test F control value class (tomato late blight) [2, 4] | Test H control value class (cucumber anthracnose) ([3]; 250 ppm spray) | Test A control value ([1]; spray treatment) | Test F control value ([2]; spray treatment) | Test H control value ([3]; 250 ppm spray) | other results
Cc1cccc(C)c1-n1cc(Br)c(=O)c(Cl)c1-c1ccc(F)cc1 [Compound 342] | – | – | – | – | – | – | Test A control value ([1]; spray treatment of rice plants): L (L shows the control value of 50% or less); Test F control value [2, 4]: L (L shows the control value of 50% or less); Test H control value ([3]; 250 ppm spray (2.5 ml/pot)): H (H shows the control value of more than 50%)
COc1cc(F)c(-c2c(Cl)c(=O)c(Br)cn2C(C)C)c(F)c1 [Compound 19] | H (H shows the control value of more than 50%) | L (L shows the control value of 50% or less) | H (H shows the control value of more than 50%) | – | – | – | –
O=c1c(Br)cn(-c2ccccc2)c(-c2c(F)cc(F)cc2F)c1Br [Compound 8] | H (H shows the control value of more than 50%) | L (L shows the control value of 50% or less) | H (H shows the control value of more than 50%) | – | – | – | –
O=c1c(Br)cn(-c2ccccc2)c(-c2cccc(F)c2F)c1Cl [Compound 603] | – | – | – | L (L shows the control value of 50% or less) | L (L shows the control value of 50% or less) | L (L shows the control value of 50% or less) | –
COc1cccc(-n2cc(C)c(=O)c(C)c2-c2c(F)cc(F)cc2F)c1C [Compound 481] | – | – | – | H (H shows the control value of more than 50%) | H (H shows the control value of more than 50%) | H (H shows the control value of more than 50%) | –
O=c1c(Br)cn(-c2ccccc2)c(-c2cc(F)ccc2F)c1Cl [Compound 596] | – | – | – | L (L shows the control value of 50% or less) | L (L shows the control value of 50% or less) | L (L shows the control value of 50% or less) | –
COc1cc(F)c(-c2c(C)c(=O)c(C)cn2-c2cc(Cl)ccc2C)c(F)c1 [Compound 464] | – | – | – | H (H shows the control value of more than 50%) | L (L shows the control value of 50% or less) | H (H shows the control value of more than 50%) | –
Cc1cn(-c2ccccc2)c(-c2ccc(Cl)cc2F)c(C)c1=O [Compound 586] | – | – | – | H (H shows the control value of more than 50%) | L (L shows the control value of 50% or less) | H (H shows the control value of more than 50%) | –
COc1ccc(-c2c(C)c(=O)c(C)cn2-c2ccccc2)c(Br)c1 [Compound 594] | – | – | – | L (L shows the control value of 50% or less) | H (H shows the control value of more than 50%) | H (H shows the control value of more than 50%) | –
Cc1ccccc1-n1cc(Br)c(=O)c(Br)c1-c1c(F)cccc1F [Compound 112] | L (L shows the control value of 50% or less) | L (L shows the control value of 50% or less) | H (H shows the control value of more than 50%) | – | – | – | –
Cc1c(-n2cc(C)c(=O)c(C)c2-c2c(F)cc(F)cc2F)ccc(Br)c1[N+](=O)[O-] [Compound 425] | – | – | – | H (H shows the control value of more than 50%) | L (L shows the control value of 50% or less) | L (L shows the control value of 50% or less) | –
O=c1c(Br)cn(-c2ccc(F)cc2Cl)c(-c2c(F)cccc2F)c1Cl [Compound 96] | H (H shows the control value of more than 50%) | L (L shows the control value of 50% or less) | H (H shows the control value of more than 50%) | – | – | – | –
O=c1c(Cl)cn(Cc2ccccc2Cl)c(-c2c(F)cc(F)cc2F)c1I [Compound 89] | H (H shows the control value of more than 50%) | L (L shows the control value of 50% or less) | H (H shows the control value of more than 50%) | – | – | – | –
O=c1c(Br)cn(-c2ccccc2)c(-c2ccc(Cl)cc2F)c1Cl [Compound 587] | – | – | – | H (H shows the control value of more than 50%) | L (L shows the control value of 50% or less) | H (H shows the control value of more than 50%) | –
Cc1cccc(-n2cc(Cl)c(=O)c(Br)c2-c2c(F)cc(F)cc2F)c1C [Compound 172] | H (H shows the control value of more than 50%) | H (H shows the control value of more than 50%) | H (H shows the control value of more than 50%) | – | – | – | –
Cc1cccc(-n2cc(Br)c(=O)c(Cl)c2-c2c(F)cc(F)cc2F)c1C [Compound 163] | H (H shows the control value of more than 50%) | L (L shows the control value of 50% or less) | H (H shows the control value of more than 50%) | – | – | – | –

Compound | Test A control value class (rice blast) ([1]; spray treatment of rice plants) | Test F control value class (tomato late blight) [2, 4] | Test H control value class (cucumber anthracnose) ([3]; 250 ppm spray) | Test A control value ([1]; spray treatment) | Test F control value ([2]; spray treatment) | Test H control value ([3]; 250 ppm spray) | other results
Cc1cn(-c2ccccc2)c(-c2ccc(F)c(F)c2)c(C)c1=O [Compound 616] | – | – | – | L (L shows the control value of 50% or less) | L (L shows the control value of 50% or less) | L (L shows the control value of 50% or less) | –
COc1cc(F)c(-c2c(C)c(=S)c(C)cn2-c2ccccc2C)c(F)c1 [Compound 225] | – | – | – | – | – | – | Test A control value ([1]; spray treatment of rice plants): H (H shows the control value of more than 50%); Test F control value [2, 4]: L (L shows the control value of 50% or less); Test H control value ([3]; 250 ppm spray (2.5 ml/pot)): H (H shows the control value of more than 50%)
O=c1c(Br)cn(-c2cc(F)ccc2Cl)c(-c2c(F)cccc2F)c1Cl [Compound 105] | H (H shows the control value of more than 50%) | L (L shows the control value of 50% or less) | H (H shows the control value of more than 50%) | – | – | – | –
O=c1c(Cl)cn(C2CCCCC2)c(-c2c(F)cc(F)cc2F)c1Br [Compound 25] | H (H shows the control value of more than 50%) | L (L shows the control value of 50% or less) | H (H shows the control value of more than 50%) | – | – | – | –
O=c1c(Br)cn(CCc2ccccc2)c(-c2c(F)cc(F)cc2F)c1Cl [Compound 100] | L (L shows the control value of 50% or less) | L (L shows the control value of 50% or less) | L (L shows the control value of 50% or less) | – | – | – | –
CCc1c(-c2ccccc2)n(-c2cccc(C)c2C)cc(C)c1=O [Compound 503] | – | – | – | L (L shows the control value of 50% or less) | L (L shows the control value of 50% or less) | H (H shows the control value of more than 50%) | –
COc1cc(F)c(-c2c(Br)c(=O)c(Cl)cn2CC(C)C)c(F)c1 [Compound 132] | H (H shows the control value of more than 50%) | H (H shows the control value of more than 50%) | H (H shows the control value of more than 50%) | – | – | – | –
COCCOc1ccc(C)c(-n2cc(C)c(=O)c(C)c2-c2c(F)cc(OC)cc2F)c1 [Compound 316] | – | – | – | – | – | – | Test A control value ([1]; spray treatment of rice plants): H (H shows the control value of more than 50%); Test F control value [2, 4]: L (L shows the control value of 50% or less); Test H control value ([3]; 250 ppm spray (2.5 ml/pot)): H (H shows the control value of more than 50%)
CCc1c(-c2c(F)cc(F)cc2F)n(-c2ccccc2)cc(Br)c1=O [Compound 492] | – | – | – | H (H shows the control value of more than 50%) | L (L shows the control value of 50% or less) | H (H shows the control value of more than 50%) | –
COCCOc1ccc(C)c(-n2cc(Br)c(=O)c(Cl)c2-c2c(F)cc(F)cc2F)c1 [Compound 282] | – | – | – | – | – | – | Test A control value ([1]; spray treatment of rice plants): H (H shows the control value of more than 50%); Test F control value [2, 4]: L (L shows the control value of 50% or less); Test H control value ([3]; 250 ppm spray (2.5 ml/pot)): H (H shows the control value of more than 50%)
Cc1c(-n2cc(Br)c(=O)c(Cl)c2-c2c(F)cc(F)cc2F)cccc1[N+](=O)[O-] [Compound 320] | – | – | – | – | – | – | Test A control value ([1]; spray treatment of rice plants): H (H shows the control value of more than 50%); Test F control value [2, 4]: L (L shows the control value of 50% or less); Test H control value ([3]; 250 ppm spray (2.5 ml/pot)): L (L shows the control value of 50% or less)
O=c1c(Br)cn(-c2ccccc2Br)c(-c2c(F)cccc2F)c1Cl [Compound 90] | H (H shows the control value of more than 50%) | L (L shows the control value of 50% or less) | H (H shows the control value of more than 50%) | – | – | – | –
Cc1ccccc1-c1c(Cl)c(=O)c(Br)cn1-c1ccccc1 [Compound 579] | – | – | – | H (H shows the control value of more than 50%) | L (L shows the control value of 50% or less) | L (L shows the control value of 50% or less) | –
Cc1ccc(C)c(-n2cc(C)c(=O)c(C)c2-c2c(F)cc(O)cc2F)c1 [Compound 403] | – | – | – | L (L shows the control value of 50% or less) | L (L shows the control value of 50% or less) | L (L shows the control value of 50% or less) | –
Cc1c(Br)cccc1-n1cc(C)c(=O)c(C)c1-c1c(F)cccc1F [Compound 496] | – | – | – | H (H shows the control value of more than 50%) | L (L shows the control value of 50% or less) | L (L shows the control value of 50% or less) | –

— patent publication US11000038B2, “Pyridone compounds and agricultural and horticultural fungicides containing the same as active ingredients” (priority 2017, dated 2021)
